Reference: PubChem BioAssay AID686971 (National Center for Advancing Translational Sciences (NCATS), 2013)
About 7,500 (2.1%) of roughly 360,000 compounds were called active. Inconclusive results, whose numbers are uncertain, are shown with a selection of clear calls. The call rests on the fitted dose curve; in most records, active means well fitted cell-killing curve with a large enough effect; inconclusive means small, poorly fitted or top-dose-only effect, or effect the other way, or another doubt; inactive means no such curve, though single readings can be large or run the other way. No potency is given beside an inconclusive call; the fits are too rough.

test: qHTS for induction of synthetic lethality in tumor cells producing 2HG: qHTS for the HT-1080-IDH1KD cell line; details: HT-1080 IDH1 knockdown viability, ATP luminescence, 48 h; activity, negative = toxicity: at 46.1 µM (top of the series) unless noted;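 on activity, negative = toxicity: 0% = DMSO wells and -100% = cell-free medium wells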
How it was run: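 CellTiter-Glo luminescence after 48 h compound exposure at 37 degrees C of IDH1-knockdown HT-1080 cells in 5% FBS RPMI. %Activity scaled between DMSO wells and cell-free media wells, with curves fitted and assigned curve classes.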
Potency means the concentration at half of the fitted maximal effect; tags describe the fitted curve by direction and shape.

| SMILES | Potency | activity, negative = toxicity |
| --- | --- | --- |
| O=C1NC2c3c(I)sc(I)c3C(=O)C2O1 (configuration not stated) | inconclusive [cytotoxic, single point] | – |
| Cc1c(N2C(=O)CSC2c2ccc(F)cc2)c(=O)n(-c2ccccc2)n1C (configuration not stated) | – | inactive: -7.4% |
| CCOC(=O)[C@]12CCCC=C1N(Cc1ccc(Cl)cc1Cl)C(=O)[C@H](CC(=O)NCc1cccs1)C2 | inconclusive [cytotoxic, single point] | – |
| OCCN1CCN(C2CCC(c3ccc(F)cc3)c3ccc(F)cc32)CC1 (configuration not stated) | active: 23.1 µM | – |
| Cc1ccc(NC(=S)NC(=O)c2ccc(F)cc2)cc1S(=O)(=O)Nc1ccccc1Cl | inconclusive [cytotoxic, single point] | – |
| Cc1cc(C(=O)CSc2nnc(-c3ccccc3)n2C)c(C)n1C | – | inactive: 17% |
| CC(C)(C)NC(=O)C(c1ccncc1)N(Cc1ccc(F)cc1)C(=O)c1ccc(-c2ccccc2)[nH]1 (configuration not stated) | inconclusive [cytotoxic, partial curve, poor fit] | – |
| O=C(CSc1nc2ccccc2o1)N/N=C/c1ccc(C(=O)O)cc1 | – | inactive: 6.73% |
| CC(C)(C)C(=O)/C=C(\N)c1ccncc1 | inconclusive [cytotoxic, partial curve] | – |
| CCn1c2ccccc2c2cc(NC(=O)CN3CCCC3)ccc21 | inconclusive [cytotoxic, single point] | – |
| O=[N+]([O-])c1cccc(-c2ccc(SCc3cccnc3)nn2)c1 | inconclusive [cytotoxic, single point] | – |
| Cn1nccc1C(=O)c1ccc(Cl)cc1 | – | inactive: 11.1% |
| CSc1ccc(OC2(C)CCN(Cc3ccc(OC(C)C)cc3)C2)cc1 (configuration not stated) | inconclusive [cytotoxic, single point] | – |
| CC(C)c1ccc(NC(=O)c2ccc(-c3ccnn3C)c3ccoc23)cc1 | active: 18.4 µM | – |
| N#Cc1cccnc1N1CCN(C(C(=O)NC2CCCC2)c2ccc(F)cc2)CC1 (configuration not stated) | – | inactive: 7.76% |
| COc1ccc(/C=C2\Oc3cc(OC(=O)N4CCOCC4)ccc3C2=O)cc1 | – | inactive: 4.91% |
| CC(C)(C)NC(=O)C(c1cc2ccccc2o1)n1c(-c2ccc(-c3ccccc3)cc2)nc2ccccc21 (configuration not stated) | inconclusive [cytotoxic, single point] | – |
| c1ccc(-c2cn(-c3ccccc3)c3[n+]2CCS3)cc1 | inconclusive [cytotoxic, partial curve] | – |
| CC1(C(=O)NS(=O)(=O)C2CC2)CCN(C(=O)c2c(F)cccc2F)C1 (configuration not stated) | inconclusive [rising, single point] | – |
| O=C(C#Cc1ccccc1)c1ccc([N+](=O)[O-])cc1 | inconclusive [cytotoxic, partial curve] | – |
| Cc1cccc(C(=O)NC(=S)NNC(=O)c2ccccc2Cl)c1 | inconclusive [cytotoxic, single point] | – |
| COc1cc(C(=O)Nc2ccc(S(=O)(=O)NC(C)C)cc2)cc(OC)c1OC | inconclusive [cytotoxic, single point] | – |
| COc1ccccc1Oc1ccc(NC(=O)Cc2ccccc2)cc1 | – | inactive: -10.4% |
| CC(=O)Nc1cccc(NC(=O)C(=O)NCC(c2ccco2)N2CCc3ccccc3C2)c1 (configuration not stated) | – | inactive: -13.6% |

| SMILES | Potency | activity, negative = toxicity |
| --- | --- | --- |
| NC(=O)c1c(NC(NC(=O)c2ccco2)C(=O)c2ccc(Cl)cc2)sc2c1CCCC2 (configuration not stated) | inconclusive [cytotoxic, single point] | – |
| O=C(NNC(=O)c1ccccc1-n1cccc1)c1ccc(Cl)cc1 | – | inactive: 8.25% |
| CC(=O)N[C@@H](Cc1c[nH]c2ccccc12)C(=O)NCc1ccccc1 | – | inactive: 4.45% |
| COc1cc(Cl)ccc1OC1(C)CCN(Cc2cccc(OC)c2OC)C1 (configuration not stated) | inconclusive [cytotoxic, single point] | – |
| NC(c1csc(Nc2cc(Oc3ccccc3)ncn2)n1)C1CCCCC1 (configuration not stated) | active: 4.61 µM | – |
| O=C1/C(=C/c2ccc(F)cc2)SC(=S)N1CCCC(=O)N1CCCCC1CCO (configuration not stated) | inconclusive [cytotoxic, single point] | – |
| CC(=O)c1c(C)[nH]c(C(=O)Nc2nccs2)c1C | inconclusive [cytotoxic, partial curve] | – |
| O/N=C/c1cc(Br)ccc1OCc1ccccc1F | inconclusive [cytotoxic, single point] | – |
| COC(=O)c1cccc(NC(=O)/C=C/c2cccc([N+](=O)[O-])c2)c1 | inconclusive [cytotoxic, single point] | – |
| CC(=O)N1c2ccc(S(=O)(=O)N3CCCC(C(=O)Nc4ccc(F)cc4)C3)cc2CC1C (configuration not stated) | – | inactive: -14.6% |
| COc1ccc(-c2[nH]c(-c3cccc(OC)c3)nc2SCC(=O)NC2CCCC2)cc1 | – | inconclusive: -30% [cytotoxic] |
| CC1=CC2=NC(=O)/C(=C\c3cn(C)c4ccccc34)C(=N)N2O1 | – | inactive: 1.15% |
| CCC(C)NS(=O)(=O)c1ccc(OCC(=O)NCc2ccccn2)cc1 (configuration not stated) | – | inactive: 10.7% |
| CC[C@]12c3[nH]c4ccc(Cl)cc4c3CCN1C(=O)[C@@H](CC(=O)NCCCN(C)C)C[C@@H]2C(=O)N1CCN(C(=O)c2ccco2)CC1 | – | inactive: -1.53% |
| CSc1ccc(-c2cc3c(c4c2ccn4C)C2CCC3O2)cc1 (configuration not stated) | – | inactive: -23.1% |
| Cc1ccc(C(=O)Nc2ccccc2C(=O)N2CCOCC2)cc1[N+](=O)[O-] | inconclusive [rising, partial curve] | – |
| COc1ccccc1C(=O)Nc1nnc([C@H]2C[C@H](O)[C@@H](CO)O2)s1 | inconclusive [rising, partial curve, poor fit] | – |
| CCOc1ccc2nc(N(CCN(C)C)C(=O)c3ccc4c(c3)CCCC4)sc2c1 | – | inactive: -9.06% |
| COc1ccc(C(=O)Nc2ccc(Cl)cc2C(=O)NCCN2CCOCC2)cc1 | – | inactive: 12.6% |
| COc1ccccc1C(C[N+](=O)[O-])c1c[nH]c2ccccc12 (configuration not stated) | inconclusive [cytotoxic, partial curve] | – |
| CC(=O)NC(c1ccccc1)c1cc(Cl)c2cccnc2c1O (configuration not stated) | inconclusive [cytotoxic, partial curve] | – |
| CCc1ccc(OC2(C)CCN(CCOc3ccc(C)cc3)C2)cc1 (configuration not stated) | – | inactive: 0% |
| CCOc1cc(/C=N/NC(=O)Cn2nc([N+](=O)[O-])cc2C)ccc1OCc1ccc(F)cc1 | inconclusive [cytotoxic, single point] | – |
| COc1cccc(C(C(=O)NC2CCCC2)N2CCN(c3cc(C)ccc3C)CC2)c1OC (configuration not stated) | inconclusive [cytotoxic, single point] | – |

| SMILES | Potency | activity, negative = toxicity |
| --- | --- | --- |
| COC(=O)c1ccc2nc(-c3ccco3)c(Cc3ccccc3)n2c1 | inconclusive [cytotoxic, single point] | – |
| Cn1ncc2c(N3CCC(Cc4ccccc4)CC3)ncnc21 | inconclusive [cytotoxic, full curve, poor fit] | – |
| Cc1ccc(NC(=S)NC(=O)c2ccc(-c3ccc(Cl)cc3)o2)c(O)c1 | inconclusive [cytotoxic, single point] | – |
| COc1cc(NS(=O)(=O)c2ccc(OC)c(C)c2C)c(OC)cc1Cl | active: 2.31 µM | – |
| Cc1ccc(NC(=O)CNC(=O)c2ccc(OC(F)F)cc2)cc1S(=O)(=O)N1CCCCCC1 | inconclusive [cytotoxic, single point] | – |
| Cc1ccc(Nc2nc(N)c([N+](=O)[O-])c(NCc3ccccc3)n2)cc1 | inconclusive [cytotoxic, single point] | – |
| C/C(=N/NC(=O)CSc1nc2ccccc2s1)c1ccncc1 | – | inactive: -4.37% |
| CCCCC(=O)N(C)c1c(CC)nc2c(OCC3CCCCC3)cccn12 | inconclusive [cytotoxic, single point] | – |
| COc1ccc(C(=O)Nc2ccccc2C(=O)N/N=C/c2ccncc2)cc1OC | active: 25.9 µM | – |
| COc1ccc(CNC(=O)C2CCN(S(=O)(=O)N3CCC4(CC3)OCCO4)CC2)c(OC)c1 | active: 16.4 µM | – |
| COc1cc(/C=C2/SC(=O)NC2=O)ccc1OCc1ccccc1 | inconclusive [cytotoxic, single point] | – |
| CC(C)C[C@@H](CN1CCCC1CN1C(=S)NC[C@@H]1Cc1ccc(O)cc1)N1C[C@H](Cc2ccccc2)N(CC2CCCCC2)C1=S (some centres not stated) | inconclusive [cytotoxic, single point] | – |
| COc1ccc(NC(=S)Nc2cccc3cnccc23)cc1 | – | inactive: 0.978% |
| Cc1ccc(Sc2c(CO)c(-c3ccccc3)nn2C)cc1 | active: 1.16 µM | – |
| CCSc1nnc(-c2ccc(S(=O)(=O)NCc3cccs3)cc2)o1 | inconclusive [cytotoxic, single point] | – |
| O=c1[nH]c(=O)n(-c2ccccc2)c2c1C(C(F)(F)F)(C(F)(F)F)N=C(CCC1CCCCC1)N2 | – | inactive: 0.391% |
| Clc1ccc2oc3c(Cl)ncnc3c2c1 | – | inactive: 5.52% |
| COc1ccc(/C=C2\SC(=S)N(CCCCCC(=O)Nc3cc(C)on3)C2=O)cc1OC | – | inactive: 4.97% |
| Cc1ccc(S(=O)(=O)N2CCN(C)CC2)c(C)c1N(C)S(=O)(=O)c1ccc(Cl)cc1 | – | inactive: -22.6% |
| O=c1[nH]c(CSc2nnnn2-c2ccc(Cl)cc2)nc2ccccc12 | – | inactive: -2.85% |
| NC(=O)c1cc([N+](=O)[O-])ccc1NCc1ccc(O)cc1 | inconclusive [cytotoxic, full curve] | – |
| COc1cc(OC)cc(C(=O)NCC(=O)Nc2ccc(-c3ccccc3)cc2)c1 | active: 5.8 µM | – |
| CC(CC(=O)Nc1ccc2c(c1)c(=O)n(C)n2Cc1ccc(F)cc1)c1ccccc1 (configuration not stated) | inconclusive [cytotoxic, single point] | – |
| Fc1ccc2c(c1)C1C=CCC1C(c1cc3c(cc1Br)OCO3)N2 (configuration not stated) | inconclusive [cytotoxic, single point] | – |
